According to publication PMC4336329 (PLoS ONE, 2015):
Hit rate of the full screen: of about 310,000 compounds, about 2,200 (0.71%) showed an effect of 50% or more. Effects have a minus sign here. The list shows a part of the results.

target: human ether-à-go-go-related gene (hERG) potassium channel (human, UniProt Q12809); assay: primary screen, population patch clamp on CHO cells stably expressing hERG
Sequence (Q12809 whole entry, looked up): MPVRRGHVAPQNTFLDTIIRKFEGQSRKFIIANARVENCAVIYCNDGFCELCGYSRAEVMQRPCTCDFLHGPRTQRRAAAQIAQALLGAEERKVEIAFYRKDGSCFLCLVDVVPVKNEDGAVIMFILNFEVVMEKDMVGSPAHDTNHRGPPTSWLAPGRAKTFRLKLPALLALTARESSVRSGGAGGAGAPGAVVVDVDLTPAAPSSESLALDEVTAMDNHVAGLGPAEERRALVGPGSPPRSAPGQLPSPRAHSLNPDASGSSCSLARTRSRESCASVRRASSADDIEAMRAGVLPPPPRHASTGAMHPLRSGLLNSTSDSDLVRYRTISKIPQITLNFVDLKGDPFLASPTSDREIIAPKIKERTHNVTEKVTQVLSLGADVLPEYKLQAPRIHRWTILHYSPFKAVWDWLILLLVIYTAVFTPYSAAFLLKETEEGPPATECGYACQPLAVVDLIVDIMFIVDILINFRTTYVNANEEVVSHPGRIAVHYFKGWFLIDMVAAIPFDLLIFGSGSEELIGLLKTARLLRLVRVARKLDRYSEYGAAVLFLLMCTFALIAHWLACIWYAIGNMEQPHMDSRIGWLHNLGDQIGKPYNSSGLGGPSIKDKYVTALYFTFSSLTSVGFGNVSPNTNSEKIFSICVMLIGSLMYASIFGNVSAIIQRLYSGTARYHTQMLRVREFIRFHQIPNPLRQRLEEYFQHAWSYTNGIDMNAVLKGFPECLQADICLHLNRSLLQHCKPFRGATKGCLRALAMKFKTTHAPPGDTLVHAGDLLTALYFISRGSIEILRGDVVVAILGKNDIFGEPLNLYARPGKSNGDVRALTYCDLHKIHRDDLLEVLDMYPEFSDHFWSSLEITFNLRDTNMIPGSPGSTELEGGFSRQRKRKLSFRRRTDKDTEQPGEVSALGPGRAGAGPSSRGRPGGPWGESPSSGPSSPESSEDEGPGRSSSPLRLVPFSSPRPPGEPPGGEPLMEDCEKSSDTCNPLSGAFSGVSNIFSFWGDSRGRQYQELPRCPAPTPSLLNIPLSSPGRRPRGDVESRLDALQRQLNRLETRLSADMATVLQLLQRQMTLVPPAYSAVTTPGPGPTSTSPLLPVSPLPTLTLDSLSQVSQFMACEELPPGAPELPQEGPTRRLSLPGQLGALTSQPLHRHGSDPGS

| Structure (SMILES) | hERG current change (%, negative = inhibition) at 1uM |
| --- | --- |
| O=C(Nc1ccc(N2C(=O)CCC2=O)cc1Cl)c1cccs1 | 11.7% |
| O=c1c2ccccc2nc(-c2cccs2)n1-c1ccc2ccccc2c1 | 2.66% |
| COc1ccc(CNC(=O)COC(=O)c2cc(-c3ccc(Cl)s3)nc3ccccc23)cc1 | 7.75% |
| Cc1cc(C(=O)COc2ccccc2C(N)=O)c(C)n1C | 3.43% |
| CC1CCN(C(=O)c2cc3c(ccc4ccccc43)o2)CC1 | -8.23% |
| Cc1ccc(Cl)cc1N(CC(=O)NC1CCCC1)C(=O)c1csnn1 | 20.9% |
| Cc1cc(C)c(S(=O)(=O)c2ccccc2C)c(Cl)n1 | 8.79% |
| O=C(Cc1ccccc1)NCc1ccncc1 | 7.72% |
| CCOC(=O)c1c(NC(=O)C2(C)Cc3ccccc3C(=O)O2)sc2c1CCCC2 (centres unmarked) | 17.5% |
| O=C(OCC(=O)N1CCCCCC1)c1cccc(Cl)c1 | 6.2% |
| CC(CCc1ccccc1)NC(=O)c1cccnc1 (centres unmarked) | 20.2% |
| CCn1c(=O)cc(SCC(=O)NCc2ccc(C)o2)c2ccccc21 | 6.24% |
| Cn1cc(CNCc2cnc3ccccn23)c(-c2ccc(Oc3ccccc3)cc2)n1 | 2.02% |
| C=C(C)CSc1nnc(-c2ccc(OC)cc2)n1N | -2.01% |
| CCC(C)NC(=O)c1ccc2c(c1)S(=O)(=O)c1ccccc1C2=O (centres unmarked) | 23% |
| O=C(NCC(c1ccco1)N1CCN(c2ccc(F)cc2)CC1)C1CCCCC1 (centres unmarked) | -1.53% |
| CCOC(=O)c1ccc(NC(=O)CCn2c(=O)oc3ccccc32)cc1 | 11.2% |
| Cc1cc(N2C(=O)C(O)=C(C(=O)c3ccco3)C2c2cccc(Cl)c2)no1 (centres unmarked) | 10.8% |
| COc1cccc(CNC(=O)CCCNS(=O)(=O)c2cccs2)c1 | 16.4% |

| Structure (SMILES) | hERG current change (%, negative = inhibition) at 1uM |
| --- | --- |
| Cc1c(NC(=O)CN2CCN(C(=O)c3ccco3)CC2)c(=O)n(-c2ccccc2)n1C | -4.71% |
| Cn1c(=O)c(C#N)c(-c2ccccc2)n2cnnc12 | 2.79% |
| CCOC(=O)C1=C(O)C(=O)N(c2ccc(S(N)(=O)=O)cc2)C1c1ccc(OC)cc1OC (centres unmarked) | 5.69% |
| CN(CC(=O)Nc1ccccc1Cl)C(=O)COC(=O)c1cc(S(=O)(=O)N(C)C)ccc1N1CCCC1 | 16.6% |
| COc1cccc(CN(C)CC2CCCN(CCc3ccccc3C)C2)c1 (centres unmarked) | -32.6% |
| NC(=O)CC[C@@H]1NC(=O)[C@@H]2CCCN2C(=O)c2cc([N+](=O)[O-])cc(I)c2NCCC[C@@H](C(=O)NC(CC(=O)O)C(N)=O)NC1=O (some centres unmarked) | -7.47% |
| CC(=O)c1ccc(Nc2cc(C)nc3ncnn23)cc1 | 7.99% |
| O=C(/C=C/c1ccccc1)NC(=S)Nc1ncccn1 | 14.1% |
| O=C(/C=C/c1cccc(Cl)c1)Nn1c(-c2cccs2)nc2ccccc2c1=O | 11.5% |
| COc1ccccc1CC(=O)N(Cc1ccccc1)c1ccc(C)cc1 | -2.47% |
| CCc1sc(C(=O)NCc2ccco2)cc1C | 14% |
| CCOC(=O)Cc1nnc(NC(=O)CSc2ccccc2)s1 | 10.8% |
| O=C(O)/C=C/c1ccc2c(c1)OCCO2 | 6.97% |
| O=c1oc2ccccc2cc1-c1nnc(-c2cccc(Br)c2)o1 | -4.04% |
| CCSc1nc(-c2ccc(OC)cc2)cc(-c2ccccc2)c1C#N | 2.51% |
| Cn1c(CNc2ccccc2)nc2ccccc21 | 14.2% |
| Cc1cccc(NC(=O)Nc2ccc(Br)cc2)n1 | 12.3% |
| O=C1c2ccccc2C(Nc2cccnc2)N1Cc1ccccc1 (centres unmarked) | -11.9% |
| c1ccc(C2=Nc3ccccc3OC2)cc1 | 6.1% |

| Structure (SMILES) | hERG current change (%, negative = inhibition) at 1uM |
| --- | --- |
| Cc1nnc(NC(=O)CSc2nnc3ncccn23)s1 | 18.6% |
| CC1CCN(c2nnc(N3CCC(C)CC3)c3ccccc23)CC1 | 10.5% |
| CSc1nc(N)c(C(=O)NC2CCCCC2)s1 | 14.2% |
| CC(=O)NCC(=O)NC1CCCc2c1cnn2-c1ccc(C(C)(C)C)cc1 (centres unmarked) | 5.63% |
| O=C(Cn1c(C(F)(F)F)nc2ccccc21)NCCCN1CCOCC1 | 13.5% |
| COc1ccc([C@@H]2[C@@H]3C(=O)N(C(C)(C)C)C(=O)[C@@H]3[C@]3(Cc4ccc(Cl)cc4)C(=O)N(c4ccc(OC)cc4)C(=O)N23)cc1 | -0.411% |
| O=C(CSCc1cnn(-c2ccccc2)c1-n1cccc1)NCc1cccs1 | -13.5% |
| Cc1ccc2c(c1)nnn2C1CCN(S(=O)(=O)c2ccc3ccccc3c2)CC1 | 4% |
| COc1ccc(NCc2nnc(SCC(=O)Nc3nc(-c4ccccc4)cs3)n2-c2ccccc2)cc1 | 9.48% |
| OC(COc1ccc(CN2CCSCC2)cc1)CN1CCCCC1 (centres unmarked) | 11% |
| NS(=O)(=O)c1ccc(CCn2c(=S)[nH]c3ccccc3c2=O)cc1 | 0.0031% |
| CCOC(=O)c1c(C)[nH]c(C(=O)N/N=C/c2ccc(OC)c(OC)c2)c1C | 13.6% |
| CCOc1ccc(C2C(C(=O)c3ccc(C)o3)=C(O)C(=O)N2CCN2CCOCC2)cc1OC (centres unmarked) | 12.3% |
| CN(C)CCCn1c2c(c(SCC(=O)Nc3cccc4ccccc34)nc1=O)CCCC2 | -11.5% |
| CCC(C)NC(=O)c1ccccc1-c1nc2ccccc2[nH]1 (centres unmarked) | -1.69% |
| Cc1[nH]c2ccccc2c1C(=O)C(C)OC(=O)c1ccc([N+](=O)[O-])o1 (centres unmarked) | 5.81% |
| Cc1nn(C(C)(C)C)c(C)c1/C=N/OC(=O)Nc1ccc(Cl)c(Cl)c1 | 10.1% |
| Cc1onc(-c2ccccc2Cl)c1C(=O)Nc1ccc2c(c1)OCO2 | 7.19% |
